Assay results: the supplement of paper PMC11383711
The list shows a part of the results. Binding of human antibodies (heavy:light variable regions, tested as scFv in one mRNA-display pool) to influenza hemagglutinin, with or without the stem antibody CR9114 bound first. Score = (mean enrichment − median) / interquartile range of that screen; higher = more enriched, 0 = typical non-binder. Active = above the paper's cut-off per screen: stems 28; unblocked H1 Solomon Islands 5, H1 Michigan 3, H3 5, H5 19, H7 2.85, both B 5; blocked 9, 7, H5 10, H7 10, B Phuket 10, B Lee 11.5. Scores are scaled within each screen and are no affinities; replicates correlate at about 0.6 to 0.9, and antibodies rare in the pool are noisier.

B1: 240-14-IgA-2F02 (protein)
chain 1: EVQLLESGGGLVQPGGSLRLSCAASGFTFSTYAMSWVRQAPGKGLEWVSTISGSGGSTYDAESVKGRFTISRDNSKNTLYLQMNSLRAEDTAVYYCAKEGGDFWSGYYANWFDPWGQGTLVTVSS
chain 2: QSALTQPRSVSGSPGQSVTISCTGTRSDVGGYNYVSWYQQHPGKAPKVIIYDVKKRPSGVPDRFSGSKSGNTASLTISGLQAEDEADYYCSAFAGSHTLFGGGTKVTVL
B2: W85-3C08 (protein)
chain 1: ASLVEFWGEGLVPAGGPLRLSCAASGFSVSSNSMSWVRQAPGRGLEWVSLIYTGGSTVYADSVRGRFTISRDNFKNTLLLQMNSLRTEDTAVYYCARAERDGDYEGNWGQGTLVTVSA
chain 2: EIVLTQSPATLSLSPGERATLSCRASQSVSSYLAWYQQKPGQAPRLLIYGASNRATGIPARFSGSGSGTDFTLTISSLEPEDFALYYCQQRSNWITFGQGTRLEIK
B3: 014-10-3A02 (protein)
chain 1: VQLVQSGAEVKKPGASVKVSCKASGYTFTGYYIQWVRQAPGQGLEWMGWINPNSGGTNYAQSFQGRVTMTRDTSVNTAYMELNRLKSDDTAIYYCARDDYPDYEVYWGQGTLVTVSS
chain 2: EIVLTQSPATLSLSPGERATLSCRASQSVSSYLDWYQQKPGQAPRLLIYDASTRATGIPSKFSGGGSGTDFTLTISSLEPEDFAVYYCQQRGNWLWTFGQGTKVEIK
B4: SFV019-4E01 (protein)
chain 1: QVQLQESGPGLLKPSETLSLTCTVSGGSISKYYWTWIRQPPGKTLEWIGYVHYAFYIGATNYNPSLKSRVTISVDTAKNQVSLRLTSVTAADTAVYYCVRADGDSEGFGYHYGMDVWGRGTTVTVSS
chain 2: DIQMTQSPSSLSASVGDRVTITCRASQGIGNDLAWYQQKLGTAPKRLIYDASSLQSGVPSRFSGSGSGTEFTLTISSLQPEDFATYYCLQHNDYPLTFGQGTKVEIK
B5: AG10-A05 (protein)
chain 1: VQLQESGPRLIKPSETLSLTCTVSGGSISSSPYFWGWIRQPPGKGLEWIGSSYYSGNTDYNPSLKSRVTISVDTSKNQFSLKLRSVTAADTAVYYCARRTHDYGDYYYWFDPWGQGTLVTVSS
chain 2: DIQMTQSPSSLSASVGDRVTITCRTSRTIRNYLNWYQQKPGKAPNLLIYTASTLQSGVPSRFNGSGSGTDFTLTISSLQPEDFATYYCQQSYYFGPGTKVDIK
B6: W85-1A11 (protein)
chain 1: EVQLLESGGGLVQPGGSLRLSCTASGFTFSNYAMTWVRQPPGKGLEWVSSISGSGGRTYYADSVKGRFTISRDNSKNTLYLQMNSLRAEDTAVFYCAAASPLLRWYCLDYWGQGTLVPVSS
chain 2: NFMLTQPHSVSESPGKTVTISCTGSSGSITSNYVQWYQQRPGSAPTTVIYEDNQRPSGVPDRFSGSIDSSSNSASLTISGLKTEDEADYYCQSYDSRNYVVFGGGT
B7: 16.ND.89 (protein)
chain 1: QVQLVQSGAEVKEPGASVKVSCKVFGYTLTDLSMHWVRQAPGKGLEWMGGFDPEDDETIYAQNLQGRVTMTEDTSTDTAYMELSSLRSEDTAVYYCTTRDYYDSSGYLVDYWGQGTLVTVSS
chain 2: DIVMTQSPDSLAVSLGERATINCKSSQSVLHWSNNKNYLAWYQQRPGQPPKLLISWASTRESGVPDRFSGSGCGTDFTLTISNLQPEDVAVYYCQQYYNTPPFTFGPGTKVDIK

Molecular target: Influenza A H1N1 A/Michigan/45/2015 hemagglutinin ectodomain
Experiment: mRNA display binding score; higher = more enriched on the antigen
Conditions: antigen blocked with: 2 µM CR9114 IgG
Description: (§1)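 A pool of natively paired antibodies, displayed as scFv on mRNA, was selected once on antigen-coated beads and sequenced before and after; two replicates.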

Row | Binder | mRNA display binding score
1 | B1 | inactive: -0.383
2 | B2 | inactive: 0.0552
3 | B3 | active: 240
4 | B4 | inactive: 0.193
5 | B5 | inactive: 0.344
6 | B6 | inactive: 0.587
7 | B7 | inactive: -0.113

Same assay, conditions: antigen blocked with: nothing

Row | Binder | mRNA display binding score
8 | B1 | inactive: -0.726
9 | B2 | inactive: 0.184
10 | B3 | active: 10.5
11 | B4 | inactive: 0.793
12 | B5 | inactive: 0.32
13 | B6 | inactive: 0.701
14 | B7 | inactive: -0.34

Molecular target: Influenza A H1N1 A/Solomon Islands/3/2006 hemagglutinin ectodomain
Experiment: as above
Conditions: antigen blocked with: 2 µM CR9114 IgG
Description: as §1

Row | Binder | mRNA display binding score
15 | B1 | inactive: -0.444
16 | B2 | inactive: -0.138
17 | B3 | inactive: 1.13
18 | B4 | inactive: -0.00925
19 | B5 | inactive: 0.282
20 | B6 | inactive: 0.24
21 | B7 | inactive: -0.0512

Same assay, conditions: antigen blocked with: nothing

Row | Binder | mRNA display binding score
22 | B1 | inactive: -0.546
23 | B2 | inactive: -0.111
24 | B3 | inactive: 0.128
25 | B4 | inactive: 0.68
26 | B5 | inactive: 0.466
27 | B6 | inactive: 0.563
28 | B7 | inactive: -0.0949

Molecular target: Influenza A H3N2 A/Singapore/INFIMH-16-0019/2016 hemagglutinin ectodomain
Experiment: as above
Conditions: antigen blocked with: nothing
Description: as §1

Row | Binder | mRNA display binding score
29 | B1 | active: 72.7
30 | B2 | inactive: 0.402
31 | B3 | inactive: 0.362
32 | B4 | inactive: 0.8
33 | B5 | inactive: 0.171
34 | B6 | inactive: 0.555
35 | B7 | inactive: 0.172

Molecular target: Influenza A H5N1 A/Qinghai/1A/2005 hemagglutinin ectodomain
Experiment: as above
Conditions: antigen blocked with: 2 µM CR9114 IgG
Description: as §1

Row | Binder | mRNA display binding score
36 | B1 | inactive: -0.827
37 | B2 | inactive: -0.495
38 | B3 | inactive: 0.51
39 | B4 | inactive: 0.211
40 | B5 | inactive: 0.139
41 | B6 | inactive: -0.29
42 | B7 | inactive: -0.149

Same assay, conditions: antigen blocked with: nothing

Row | Binder | mRNA display binding score
43 | B1 | inactive: -0.295
44 | B2 | inactive: -0.258
45 | B3 | inactive: 0.576
46 | B4 | inactive: 0.323
47 | B5 | inactive: 0.368
48 | B6 | inactive: 0.321
49 | B7 | inactive: -0.229

Molecular target: Influenza A H7N9 A/Shanghai/2/2013 hemagglutinin ectodomain
Experiment: as above
Conditions: antigen blocked with: 2 µM CR9114 IgG
Description: as §1

Row | Binder | mRNA display binding score
50 | B1 | inactive: -0.572
51 | B2 | inactive: 0.118
52 | B3 | inactive: 0.98
53 | B4 | inactive: -0.596
54 | B5 | inactive: -0.235
55 | B6 | inactive: 0.0341
56 | B7 | inactive: 0.278

Same assay, conditions: antigen blocked with: nothing

Row | Binder | mRNA display binding score
57 | B1 | inactive: -0.618
58 | B2 | inactive: 0.587
59 | B3 | inactive: 1.61
60 | B4 | inactive: 0.712
61 | B5 | inactive: 0.291
62 | B6 | inactive: 1.7
63 | B7 | inactive: -0.409

Molecular target: Influenza B/Lee/1940 hemagglutinin ectodomain
Experiment: as above
Conditions: antigen blocked with: 2 µM CR9114 IgG
Description: as §1

Row | Binder | mRNA display binding score
64 | B1 | inactive: -0.767
65 | B2 | inactive: 0.083
66 | B3 | inactive: 0.176
67 | B4 | inactive: -0.34
68 | B5 | inactive: -0.267
69 | B6 | inactive: 0.0202
70 | B7 | inactive: 0.282

Same assay, conditions: antigen blocked with: nothing

Row | Binder | mRNA display binding score
71 | B1 | inactive: -0.117
72 | B2 | inactive: -0.202
73 | B3 | inactive: 0
74 | B4 | inactive: -0.0825
75 | B5 | inactive: 0.0227
76 | B6 | inactive: -0.175
77 | B7 | inactive: -0.329

Molecular target: Influenza B/Phuket/3073/2013 hemagglutinin ectodomain
Experiment: as above
Conditions: antigen blocked with: 2 µM CR9114 IgG
Description: as §1

Row | Binder | mRNA display binding score
78 | B1 | inactive: -0.456
79 | B2 | inactive: 0.0136
80 | B3 | inactive: 0.965
81 | B4 | inactive: -0.341
82 | B5 | inactive: -0.308
83 | B6 | inactive: 0.0547
84 | B7 | inactive: -0.402

Same assay, conditions: antigen blocked with: nothing

Row | Binder | mRNA display binding score
85 | B1 | inactive: -0.419
86 | B2 | inactive: -0.152
87 | B3 | inactive: 0.366
88 | B4 | inactive: -0.0868
89 | B5 | inactive: -0.229
90 | B6 | inactive: 0.0134
91 | B7 | inactive: -0.264
